# From PubChem BioAssay AID1240 (Sanford-Burnham Center for Chemical Genomics, 2008)
# Screen size: about 50,000 compounds; about 800 (1.6%) showed an effect of 50% or more. The list shows a part of the results.
# Target: Bcl-2-like protein 10 (Homo sapiens) (UniProt Q9HD36)
# Assay: TR3 peptide-Bcl-B binding displacers, biochemical primary FP assay, phenotype converters (AID 1240);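 further: 0% = Bcl-B with tracer peptide and DMSO and 100% = tracer peptide lacking Bcl-B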
# Details: GST-Bcl-B / FITC-TR3 peptide fluorescence polarization; stronger effect = higher value; compound at 3.75 mg/L
# UniProt Q9HD36, sequence (Q9HD36 whole entry, looked up): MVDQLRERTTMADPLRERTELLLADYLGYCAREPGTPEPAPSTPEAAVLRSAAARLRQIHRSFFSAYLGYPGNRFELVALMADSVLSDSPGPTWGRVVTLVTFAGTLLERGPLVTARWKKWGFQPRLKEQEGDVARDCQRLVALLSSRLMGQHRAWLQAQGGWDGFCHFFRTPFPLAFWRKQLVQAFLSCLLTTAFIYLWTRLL
row,Structure (SMILES),displacement
1,CC1(C)N([O-])C2=C(c3ccccc3C2=O)[N+](=O)C1(C)C,-3.1%
2,COc1ccc(CNC(=S)Nc2ccc(Cl)cc2Cl)cc1,10.3%
3,Cc1ccc(S(=O)(=O)c2nc(Nc3ccccc3C)sc2Cl)cc1,14.2%
4,COC(=O)C(CC(C(=O)OC)C(=O)OC)C(=O)OC,9.1%
5,O=C(Cc1ccc(Br)cc1)N1CCN(c2ccccc2)CC1,9.8%
6,O=C(NCc1cccnc1)C1c2ccccc2Oc2ccccc21,-4.6%
7,CC1=NN(C(=O)CCc2ccccc2)C(O)(c2ccc(Cl)cc2)C1 (stereo unspecified),-6.4%
8,O=Cc1cc(-c2ccccc2)oc1Cl,-4.1%
9,Cc1ccc(-c2c(CCC(C)(O)c3ccccc3)oc3ccccc23)o1 (stereo unspecified),-14.8%
10,COc1ccc(Oc2ccc3[nH]c4c(c3c2)CCC/C4=N/O)cc1,-3.6%
11,Cc1ccc(C(C)C)c(OCc2nnc(NC(=O)Nc3ccccc3)s2)c1,8.4%
12,Cc1[nH]c(=O)c(C#N)c2c1COC(C)(C)C2,3.9%
13,COc1ccccc1NC(=O)C1CC2c3ccccc3C1c1ccccc12 (stereo unspecified),-6.4%
14,Cc1ccc(NC(=O)COc2ccc(Cl)c(C)c2)c(Br)c1,-12%
15,CCOC(=O)c1ccc(NCc2cc(Br)ccc2O)cc1,-3.1%
16,COc1ccc(CNCc2ccc([N+](=O)[O-])cc2)cc1,-1.4%
17,COc1ccc(/C(N)=N/OC(=O)CCc2ccccc2)cc1,0%
18,COC(=O)/C=C1/N/C(=N/c2nc3ccccc3s2)NC1=O,1.8%
19,Cc1cc(C)cc(NCc2ccncc2)c1,17.1%
20,Cc1ccc(C(C)C)c(OCC(=O)N/N=C/c2ccc(C(=O)O)cc2)c1,9%
21,O=C(/C=C/c1ccccc1)CC(=O)C(F)(F)F,11%
22,CCOc1ccc(NCC(=O)N/N=C/c2cccc([N+](=O)[O-])c2)cc1,-1.3%
23,Cc1ccc(-c2nc3cc(Cl)ccc3o2)cc1NC(=O)C(C)C,-16.5%

row,Structure (SMILES),displacement
1,Cc1ccc(S(=O)(=O)N(Cc2ccccc2)c2ccccc2C(=O)Nc2c(C)n(C)n(-c3ccccc3)c2=O)cc1,8.2%
2,O=C(NCCOc1ccccc1F)Nc1ccc(Br)cc1,-0.6%
3,CS(C)=C1C(=O)NC(=O)N(c2ccccc2)C1=O,12.9%
4,O=[N+]([O-])c1ccccc1S(=O)(=O)Nc1ccc(OCc2ccccc2)cc1,11.9%
5,Cc1cc(C)c(NC(=O)Cn2cnc3c2c(=O)n(C)c(=O)n3C)c(C)c1,-9.1%
6,CCOC(=O)c1c(-c2ccccc2)oc2c([N+](=O)[O-])cc([N+](=O)[O-])cc12,11.5%
7,COc1ccc(C(=O)CC2(C(F)(F)F)NCCN2)cc1,0.5%
8,CC(=O)c1cccc(NC(=O)C2COc3ccccc3O2)c1 (stereo unspecified),-0.4%
9,N#C/C(=C1\NC2(CCCCC2)Cc2ccccc21)c1ccccc1,-12.1%
10,O=C(NN1C(=O)S/C(=C\c2ccccc2O)C1=O)c1ccc([N+](=O)[O-])cc1,-22.6%
11,Cc1c(NC(=O)CC2CCC2)c(=O)n(-c2ccccc2)n1C,13.3%
12,CC(C)(C)c1ccc2[nH]c3c(c2c1)CCC/C3=N\O,-3.6%
13,Cc1cc(Cl)ccc1OCC(=O)Nc1ncn[nH]1,7.3%
14,Cc1ccc(OCCNc2cc(N3CCN(C)CC3)ccc2[N+](=O)[O-])cc1C,12.1%
15,O=C(Nc1ccccc1C(=O)Nc1ccccn1)c1ccccc1F,4.5%
16,Cc1cc2c(cc1C)CN(c1ccc(C=Nc3cccc(Br)c3)cc1)C2,-8.5%
17,CN(C)c1ccc(NC(=O)c2ccccc2F)cc1,0.4%
18,Cc1ccc(-c2nn(-c3ccccc3)cc2/C=C(\C#N)C(N)=O)o1,61.7%
19,COc1ccc(C(=O)c2ccccc2)c2c(O)ccc(C(=O)c3ccccc3)c12,-4.4%
20,CC1CCN(C2=NC(=O)/C(=C/c3cccc4ccccc34)S2)CC1,-5.8%
21,O=C(O)CNC(=O)/C(=C\c1cccs1)NC(=O)c1ccccc1,7%
22,Cc1ccc(N2C(=O)CC(N3CCC(Cc4ccccc4)CC3)C2=O)cc1 (stereo unspecified),-1.8%
23,CC(C)COc1ccc(C(=O)Nc2ccc(Br)cc2)cc1,10%

row,Structure (SMILES),displacement
1,CC(=O)C1=C(O)CCC1=Nc1ccccc1,5.5%
2,CCN(CC)c1ccc(N=Cc2ccc(C=Nc3ccc(N(CC)CC)cc3)cc2)cc1,9.1%
3,O=C(On1c(-c2ccccc2)nc2ccccc2c1=O)c1cccc([N+](=O)[O-])c1,-4%
4,Cc1cc(C)c(N(C=O)C(=O)C2C(C)C3C=CC2C32CC2)c(C)c1 (stereo unspecified),2.8%
5,Cc1cc(C)n(-c2cc(Nc3ccccc3)nc(C)n2)n1,-11.6%
6,NC(=O)c1c(N2C(=O)c3ccccc3C2=O)sc2c1CCCC2,-10%
7,CCOc1cccc(C(=O)Nc2ccc3ccccc3c2)c1,10.1%
8,Cc1ccc(NC2c3ccccc3Oc3ccccc32)cc1,2.9%
9,COc1ccc(NS(=O)(=O)c2cc(C(=O)Nc3ccccc3C)ccc2C)cc1,-11.1%
10,Cc1cccc(OCC(=O)Nc2ccc(Cl)cc2)c1C,1.2%
11,O=C1NC(=S)S/C1=C\c1cc(Cl)c(OCc2ccccc2)c(Cl)c1,8.2%
12,COc1ccc(NC(=O)c2ccccc2O)cc1Cl,12.9%
13,O=[N+]([O-])c1cccc(/C=N\Nc2nc(-c3ccccc3)cc(-c3ccccc3)n2)c1,0.3%
14,COc1cccc(C(=O)Nc2ccc(-c3nc4ccccc4o3)c(O)c2)c1,-23.2%
15,O=[N+]([O-])c1ccc(C(O)CN2CCN(C/C=C/c3ccccc3)CC2)cc1 (stereo unspecified),-13.3%
16,CCOc1cc(OCC)cc(C(=O)N2CCN(c3ccc([N+](=O)[O-])cc3)CC2)c1,16.9%
17,O=C(Cc1ccccc1)Nc1cccc(-c2nc3ccccc3c(=O)o2)c1,2.5%
18,O=C1C=C(Nc2ccc(Cl)cc2)C(=O)N1c1ccccc1,3.3%
19,C=CCc1cccc2cc(C(=O)Nc3ccc(S(N)(=O)=O)cc3)c(=O)oc12,8.4%
20,Cc1nn(Cc2ccccc2)c(=O)c2ccccc12,5.1%
21,CCOc1ccc(-c2n[nH]c(=S)o2)cc1,11.7%
22,COc1cc(Br)c(C2NCCc3cc(OC)c(OC)cc32)cc1OC (stereo unspecified),3.3%
23,O=C(O)c1ccc2c(c1)C(=O)N(Nc1c(Cl)cc(Cl)cc1Cl)C2=O,1.2%

row,Structure (SMILES),displacement
1,COC(=O)c1ccc(/C=c2\sc3nc(-c4ccc(C)cc4)nn3c2=O)cc1,10.7%
2,O=C(COc1ccccc1)Nc1cccc(Cl)c1Cl,8.7%
3,O=C(COc1ccccc1)Nc1cc([N+](=O)[O-])ccc1Cl,3.8%
4,O=C(c1cccc(Cl)c1)N1CCN(Cc2ccccc2F)CC1,-15%
5,CCOC(=O)C1=C(O)/C(=C/c2ccc(N(C)C)cc2)N=C1C,-116%
6,CCN(CC)c1ccc(NC(=O)c2ccc(Cl)cc2Cl)cc1,5.9%
7,Cc1ccc2nc(NC(=O)C3C4C=CC(C4)C3C(=O)O)sc2c1 (stereo unspecified),-4.5%
8,Cc1ccc(S(=O)(=O)N2CCN(C(=O)c3ccc([N+](=O)[O-])cc3)CC2)cc1,-2.1%
9,C=C(C)CC1Nc2ccccc2NC1CC(=C)C (stereo unspecified),-10.6%
10,O=C(Nc1ccc(Cl)c(Cl)c1)N1CCc2ccccc21,-11.2%
11,CC(=O)c1cnc2cc(-c3ccc(Cl)cc3)nn2c1C,-11.1%
12,COc1ccc(S(=O)(=O)N(CCc2ccccc2)CC(=O)NC2CCCC2)cc1,-10.9%
13,CC(=O)c1ccc(OC(=O)c2ccccc2Br)cc1,-10.3%
14,CCCOc1ccc(-c2nnc(NC(=O)Nc3ccc(Cl)cc3)s2)cc1,13.4%
15,COC(=O)C(F)(F)C(F)(F)C(F)(F)OC(F)(C(=O)OC)C(F)(F)F (stereo unspecified),5.7%
16,CCOc1ccc2nc(NC(=O)C(c3ccccc3)c3ccccc3)sc2c1,66.7%
17,Cc1ccc(C)c(NC(=O)CC(C)C2CCCO2)c1 (stereo unspecified),-2%
18,C=CCSc1nc2sc(C(=O)O)c(C)c2c(=O)[nH]1,-12%
19,CC1=C(C(=O)Nc2ccc(Cl)cc2)C(c2ccc(Br)cc2)NC(=O)N1 (stereo unspecified),4.2%
20,CC12c3ccccc3C(c3ccccc31)C1C(=O)N(CCO)C(=O)C12 (stereo unspecified),1.8%
21,Cn1cnnc1Sc1cc(N2CCN(CCO)CC2)ccc1[N+](=O)[O-],6.9%
22,CC(C)OCC(O)CS(=O)(=O)Cc1ccc(Cl)cc1 (stereo unspecified),-3.8%
23,CC(=O)C1=C(O)C(=O)N(c2ccccn2)C1c1cccc([N+](=O)[O-])c1 (stereo unspecified),-4%

row,Structure (SMILES),displacement
1,C=CCN1C(=O)/C(=C/c2ccc(-c3ccc([N+](=O)[O-])cc3C)o2)SC1=S,13.1%
2,CN1C2C=C(N(CCc3c[nH]c4ccccc34)C(=O)c3ccccc3)CC1CC2 (stereo unspecified),-10.7%
3,CCOc1ccccc1NC(=O)CN(c1ccc(OC)c(Cl)c1)S(C)(=O)=O,2.8%
4,Cc1cccc(C)c1-n1c(C)cc(/C=N/NC(=O)c2cccnc2)c1C,-32.4%
5,NC(=Nc1ccccc1)SC1CC(=O)N(c2ccc(F)cc2)C1=O (stereo unspecified),8.6%
6,CCOc1cc(/C=C2\C(=O)NN(c3ccc(Cl)c(Cl)c3)C2=O)ccc1OC(C)=O,13%
7,COc1ccc(S(=O)(=O)N(CCc2ccccc2)CC(=O)Nc2ccc(F)cc2)cc1OC,-5.3%
8,COc1cc(CN2CCN(C(=O)CC(C)C)CC2)cc(OC)c1O,-3.9%
9,COc1ccc(/C=C/C=C2\NC(=S)NC2=O)cc1,128%
10,CCCCc1c(C)nc(N/N=C/c2c(F)c(F)c(F)c(F)c2F)[nH]c1=O,-10.9%
11,CCOC(=O)c1c(-c2ccc(OC)cc2)csc1NC(=O)C1CCCCC1C(=O)O (stereo unspecified),-7.2%
12,CCOc1ccc(NC(=O)C2=C(C)NC(=O)NC2c2cc(OC)ccc2OC)cc1 (stereo unspecified),15.9%
13,COc1ccc(/C=C2/SC(=S)N(CCCC(=O)OCCN(C)C)C2=O)cc1,-0.9%
14,CC1C(c2ccccc2)N(C)C(c2ccccc2)CC1(O)Cc1ccccc1 (stereo unspecified),5.6%
15,C(=NCCc1ccccc1)c1ccc(OC2CSC2)cc1,-9.8%
16,COc1ccc(C2CC(=O)C3=C(C2)Nc2ccccc2NC3c2cccc(C)c2)cc1 (stereo unspecified),-3.9%
17,Cc1cc2c(cc1C)NC(CC(=O)Nc1ccc(F)cc1)C(=O)N2 (stereo unspecified),-7.9%
18,CCOc1cccc(C(=O)Nc2nnc(CSCc3ccccc3)s2)c1,-1.4%
19,c1coc(CN2CCN(Cc3ccc4c(c3)OCO4)CC2)c1,-4.2%
